Screen size: about 270,000 compounds; about 620 (0.23%) were called active. Inconclusive means that the source gave no clear call. Such entries were picked first, then a sample of the others. The call rests on the fitted dose curve; in most records, active means well fitted inhibition curve with a large enough effect in the polarisation, with a control signal flat (not every such curve was filed as active); inconclusive means small, poorly fitted or top-dose-only effect, or effect the other way, or a change in a side signal; inactive means no such curve, though single readings can be large or run the other way; the % refers to the polarisation. Potencies beside an inconclusive call are fits to weak or partial responses and may not hold up. “Side channel” marks fits to a control or component signal instead of the main read-out.
target: Menin (Homo sapiens) (UniProt O00255); assay: qHTS Assay for Inhibitors Targeting the Menin-MLL Interaction in MLL Related Leukemias: Competition With Texas Red Labeled MLL-derived Mutant Peptide; conditions: fluorescence polarization; FP activity change, negative = inhibition: at 61.6 µM (top of the series); on FP activity change, negative = inhibition: % of control where 0% means no effect
Sequence of UniProt O00255 (O00255 whole entry, looked up): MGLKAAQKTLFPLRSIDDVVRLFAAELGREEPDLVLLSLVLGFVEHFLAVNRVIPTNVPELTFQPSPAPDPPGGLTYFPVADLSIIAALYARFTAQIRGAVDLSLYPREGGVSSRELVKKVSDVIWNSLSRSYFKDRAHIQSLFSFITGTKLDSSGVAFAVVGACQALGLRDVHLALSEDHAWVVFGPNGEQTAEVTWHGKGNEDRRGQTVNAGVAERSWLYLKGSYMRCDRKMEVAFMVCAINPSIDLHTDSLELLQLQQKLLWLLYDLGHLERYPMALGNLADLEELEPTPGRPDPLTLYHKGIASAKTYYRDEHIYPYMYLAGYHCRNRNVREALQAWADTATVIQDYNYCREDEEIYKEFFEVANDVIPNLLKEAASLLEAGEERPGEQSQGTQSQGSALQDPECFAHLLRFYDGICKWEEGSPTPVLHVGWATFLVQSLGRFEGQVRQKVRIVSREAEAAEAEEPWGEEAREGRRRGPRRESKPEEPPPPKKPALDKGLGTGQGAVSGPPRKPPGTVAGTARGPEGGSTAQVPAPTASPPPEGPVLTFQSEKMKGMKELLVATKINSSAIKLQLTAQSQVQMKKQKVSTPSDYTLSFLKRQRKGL
Potency means the concentration at half of the fitted maximal effect; tags describe the fitted curve by direction and shape or compound fluorescence and quenching.

SMILES | Potency | FP activity change, negative = inhibition
Cc1ccc(-c2nn(-c3ccccc3)cc2/C=C/C(=O)Nc2nccs2)cc1 | inconclusive: 3.16 µM [quencher, side channel, full curve, poor fit] | –
Cc1ccc(-c2nc3ccccc3o2)cc1NC(=O)Cc1cccs1 | inconclusive: 11.2 µM [inhibitor, full curve] | –
COc1ccc(C(CCN2CCCCC2)c2c(OC)cc(OC)c3c(-c4ccccc4)cc(=O)oc23)cc1 (stereo not drawn) | inconclusive: 2 µM [fluorescent, side channel, full curve, poor fit] | –
Cc1cccc(NC(=S)NCCc2ccc(Cl)cc2)c1C | – | inactive: 4.12%
Cc1cc(C)cc(-n2nnnc2SCC(=O)Nc2nc(-c3ccc(F)cc3)cs2)c1 | active: 35.5 µM | –
COc1ccc(-c2csc(-n3ncc(C(=O)O)c3C(F)(F)F)n2)cc1 | – | inactive: 33.4%
N#C/C(=C\c1ccc(-c2ccccc2)cc1)c1nc(-c2ccco2)cs1 | inconclusive: 15.8 µM [quencher, side channel, partial curve] | –
CC12CCC(C(=O)N(CSC(=S)N/N=C\c3ccccc3)C1=O)C2(C)C (stereo not drawn) | inconclusive: 8.91 µM [quencher, side channel, partial curve] | –
Clc1cc2nc3ccccn3c2cc1Cl | inconclusive: 28.2 µM [inhibitor, single point] | –
COc1ccc(/C=C/N(CCc2ccc(OC)c(OC)c2)C(=O)C(F)(F)F)cc1 | inconclusive: 11.2 µM [inhibitor, partial curve] | –
COc1cccc(CNC(=O)CSc2nnc3c(n2)[nH]c2ccc(OC)cc23)c1 | inconclusive: 39.8 µM [inhibitor, single point] | –
O=[N+]([O-])c1cccc(-c2csc(Nc3ccccc3)n2)c1 | inconclusive: 10 µM [quencher, side channel, partial curve] | –
Nc1ccc(Oc2ccc3nc(-c4ccccc4)c(-c4ccc([N+](=O)[O-])cc4)nc3c2)cc1 | inconclusive: 11.2 µM [quencher, side channel, partial curve] | –
COc1cccc(-n2sc3c(c2=S)-c2cc(OC)ccc2NC3(C)C)c1 | inconclusive: 3.98 µM [quencher, side channel, full curve] | –
Cc1ccc(N(C(=O)c2csnn2)C(C(=O)NC2CCCCC2)c2ccco2)cc1 (stereo not drawn) | inconclusive: 5.01 µM [inhibitor, full curve, poor fit] | –
O=C1c2ccccc2NC(c2ccco2)N1O (stereo not drawn) | inconclusive: 6.31 µM [inhibitor, partial curve] | –
O=C(NCC1(N2CCCCC2)CCCCC1)C1CC(=O)N(c2ccc3c(c2)OCCO3)C1 (stereo not drawn) | inconclusive: 39.8 µM [inhibitor, single point] | –
CCCC1=C(C(=O)OCC)C(/C=C/c2ccccc2)n2ncnc2N1 (stereo not drawn) | inconclusive: 28.2 µM [fluorescent, side channel, single point] | –
COc1ccc(NC(=S)N2CCN(c3ccc([N+](=O)[O-])cc3)CC2)cc1OC | inconclusive: 35.5 µM [quencher, side channel, single point] | –
CCN(CC)S(=O)(=O)c1cccc(C(=O)NN2Cc3ccccc3C2=N)c1 | inconclusive: 20 µM [inhibitor, partial curve] | –

SMILES | Potency | FP activity change, negative = inhibition
CC(C)(C)C1CCc2onc(C(=O)NCc3ccc(F)cc3)c2C1 (stereo not drawn) | inconclusive: 14.1 µM [inhibitor, partial curve] | –
O=C(CNC(=O)Cc1ccccc1)NCC(=O)OCc1ccc(C(=O)c2ccccc2)cc1 | inconclusive: 28.2 µM [inhibitor, single point] | –
COc1ccc(CCNc2cc(C)nc3c(-c4ccccc4OC)cnn23)cc1OC | inconclusive: 11.2 µM [quencher, side channel, partial curve] | –
O=C1CC(c2ccccc2)n2nc(NC(=O)c3ccccn3)nc2N1 (stereo not drawn) | – | inactive: 7%
COc1ccccc1C(CCN(Cc1ccccc1)C(C)=O)c1ccco1 (stereo not drawn) | inconclusive: 7.94 µM [fluorescent, side channel, partial curve] | –
N=C1C(c2nc(-c3ccc(F)cc3)cs2)=C(O)CN1Cc1ccc(Cl)cc1 | inconclusive: 12.6 µM [quencher, side channel, partial curve] | –
Cc1cccc(OCC(=O)O/N=C(\N)c2ccc(Cl)cc2)c1 | inconclusive: 31.6 µM [inhibitor, single point] | –
Cc1ccc(-n2nc3c(N4CCC(C(=O)NCc5ccc(C)o5)CC4)nnc(C)c3c2C)cc1 | inconclusive: 4.47 µM [fluorescent, side channel, full curve, poor fit] | –
CC/C(=N\Nc1nncc2ccccc12)c1ccc(F)cc1 | inconclusive: 11.2 µM [quencher, side channel, partial curve] | –
CCOc1ccc(NS(=O)(=O)c2ccc3[nH]cc(C(=O)N(CC)CC)c(=O)c3c2)cc1 | inconclusive: 4.47 µM [inhibitor, full curve] | –
Cc1cnc(NC(=O)c2cc3c(s2)CCCC3)s1 | inconclusive: 15.8 µM [quencher, side channel, partial curve] | –
CCSc1nnc(NC(=O)CSc2nc3c(cc2C#N)CCCC3)s1 | inconclusive: 28.2 µM [quencher, side channel, single point] | –
CC(=O)Nc1ccc(CN2CCC(CO)(CCOc3ccccc3)CC2)cc1 | inconclusive: 28.2 µM [inhibitor, single point] | –
CN1CCC(=C2c3ccccc3CCc3sccc32)CC1 | inconclusive: 17.8 µM [fluorescent, side channel, partial curve] | –
Cc1[nH]n(-c2ccccc2)c(=O)c1C(c1ccccc1[N+](=O)[O-])C(C#N)C#N (stereo not drawn) | inconclusive: 28.2 µM [quencher, side channel, single point] | –
COc1ccc(/C=C/c2ccc3c(Br)ccc(O)c3n2)cc1 | inconclusive: 15.8 µM [quencher, side channel, partial curve] | –
O=C1N/C(=C\c2ccc(O)cc2)C(O)=C1C=NCc1ccccc1 | inconclusive: 25.1 µM [quencher, side channel, partial curve] | –
COc1cc(/C=C/c2nc(N)nc(-c3ccccc3O)n2)cc(OC)c1OC | inconclusive: 7.94 µM [quencher, side channel, partial curve] | –
O=C(COc1ccc(NC(=O)c2ccccc2[N+](=O)[O-])cc1)c1ccc(F)cc1 | inconclusive: 14.1 µM [quencher, side channel, partial curve] | –
CCc1cc(-c2n[nH]c(C)c2-c2ccc3c(c2)OCCO3)c(O)cc1O | inconclusive: 17.8 µM [quencher, side channel, partial curve] | –

SMILES | Potency | FP activity change, negative = inhibition
Clc1ccc(C2=Nc3cc(Cl)ccc3OC2)cc1 | inconclusive: 12.6 µM [inhibitor, partial curve] | –
CN(C(=O)/C=C/c1cnc2ccccc2c1)C1CCCCC1 | inconclusive: 7.94 µM [fluorescent, side channel, full curve, poor fit] | –
CN1C=CC2=C(C#N)C(N)C(C#N)(C#N)C(c3ccccc3)C2C1 (stereo not drawn) | – | inactive: -17.8%
CC1=C(C(=O)OCC2CCCO2)C(c2ccc(C)cc2)C2=C(CCCC2=O)N1 (stereo not drawn) | – | inactive: -2.84%
c1ccc(-n2ncc3c(NCc4cccs4)ncnc32)cc1 | inconclusive: 28.2 µM [quencher, side channel, single point] | –
COc1cc(NC(=O)c2cccs2)ccc1NC(=O)c1ccccc1Cl | inconclusive: 11.2 µM [quencher, side channel, partial curve] | –
O=C(/C=C/c1ccc(F)cc1)Nc1ccc(S(=O)(=O)N2CCOCC2)cc1 | inconclusive: 39.8 µM [inhibitor, single point] | –
CCc1cc(-c2n[nH]c(C)c2-c2ccccc2Cl)c(O)cc1OC | inconclusive: 20 µM [quencher, side channel, partial curve] | –
Fc1ccc(C(CCNCc2ccccn2)c2ccc(Cl)cc2)cc1 (stereo not drawn) | inconclusive: 7.94 µM [fluorescent, side channel, partial curve] | –
CCOC(=O)c1c(NC(=O)CNC2CCCc3ccccc32)sc(C(N)=O)c1C (stereo not drawn) | inconclusive: 17.8 µM [fluorescent, side channel, partial curve] | –
Cc1ccc(C2CC(=O)N3CN(c4ccc(Br)cc4)CSC3=C2C#N)o1 (stereo not drawn) | inconclusive: 15.8 µM [quencher, side channel, partial curve] | –
Fc1ccc(-c2cnc(-c3cccs3)o2)cc1 | – | inactive: 14.1%
Cc1ccc(-c2nc3ccccc3o2)cc1NC(=S)NC(=O)c1cccs1 | inconclusive: 39.8 µM [inhibitor, single point] | –
COc1ccc(-n2nc3cc(C)c(N)c(Br)c3n2)cc1 | inconclusive: 14.1 µM [quencher, side channel, partial curve] | –
COC(=O)C1=C(C)N=c2s/c(=C/c3cccs3)c(=O)n2C1c1cccs1 (stereo not drawn) | inconclusive: 39.8 µM [inhibitor, single point] | –
COc1cc(OC)c2cc(C(=O)N/N=C/c3ccccc3O)[nH]c2c1 | inconclusive: 3.55 µM [quencher, side channel, partial curve] | –
O=C(CCc1nnc(CCCc2ccccc2)o1)NCCc1ccccc1 | – | inactive: -27.3%
Nc1c(Cl)cc(-c2csc(N3CCCC3c3nc4cc(Cl)c(Cl)cc4n3CCOCCO)n2)cc1Cl (stereo not drawn) | inconclusive: 14.1 µM [quencher, side channel, partial curve] | –

Reference: PubChem BioAssay AID1768 (National Center for Advancing Translational Sciences (NCATS), 2009)
